{"source": "paper PMC9911399", "about": "“Two distinct binding modes provide the RNA-binding protein RbFox with extraordinary sequence specificity”", "binders": {"B1": {"name": "AACGACU (DNA:RNA)", "RNA": "GGGAGACCGGAAUUCAGAUUGUCCAACGACUUUAAAUCCCGUCGUAGCCACCA", "DNA 1": "CAATCTGAATTCCGGTCTCCC", "DNA 2": "TGGTGGCTACGACGGGATT"}, "B2": {"name": "GAUGUGU (DNA:RNA)", "RNA": "B1 RNA with A25G, C27U, A29U, C30G", "DNA 1": "CAATCTGAATTCCGGTCTCCC", "DNA 2": "TGGTGGCTACGACGGGATT"}, "B3": {"name": "CCCAAGC (DNA:RNA)", "RNA": "B1 RNA with A25C, A26C, G28A, C30G, U31C", "DNA 1": "CAATCTGAATTCCGGTCTCCC", "DNA 2": "TGGTGGCTACGACGGGATT"}, "B4": {"name": "GCUCCCA (DNA:RNA)", "RNA": "B1 RNA with A25G, A26C, C27U, G28C, A29C, U31A", "DNA 1": "CAATCTGAATTCCGGTCTCCC", "DNA 2": "TGGTGGCTACGACGGGATT"}, "B5": {"name": "UAUGGGC (DNA:RNA)", "RNA": "B1 RNA with A25U, C27U, A29G, C30G, U31C", "DNA 1": "CAATCTGAATTCCGGTCTCCC", "DNA 2": "TGGTGGCTACGACGGGATT"}, "B6": {"name": "ACGAAGC (DNA:RNA)", "RNA": "B1 RNA with A26C, C27G, G28A, C30G, U31C", "DNA 1": "CAATCTGAATTCCGGTCTCCC", "DNA 2": "TGGTGGCTACGACGGGATT"}, "B7": {"name": "CCUGUUU (DNA:RNA)", "RNA": "B1 RNA with A25C, A26C, C27U, A29U, C30U", "DNA 1": "CAATCTGAATTCCGGTCTCCC", "DNA 2": "TGGTGGCTACGACGGGATT"}, "B8": {"name": "UUCCGGA (DNA:RNA)", "RNA": "B1 RNA with A25U, A26U, G28C, A29G, C30G, U31A", "DNA 1": "CAATCTGAATTCCGGTCTCCC", "DNA 2": "TGGTGGCTACGACGGGATT"}, "B9": {"name": "ACAAUCU (DNA:RNA)", "RNA": "B1 RNA with A26C, C27A, G28A, A29U", "DNA 1": "CAATCTGAATTCCGGTCTCCC", "DNA 2": "TGGTGGCTACGACGGGATT"}}, "note": "Changes are numbered by the printed parent chain; changes in the protein carry UniProt numbers. The list shows a part of the results."}
{"biological_target": "T1, RBFOX1 RRM RbFoxmut (Fox-RRM*) (Homo sapiens, UniProt Q9NWB1 109-208, R118D;E147R;N151S;E152T)", "T1 sequence": "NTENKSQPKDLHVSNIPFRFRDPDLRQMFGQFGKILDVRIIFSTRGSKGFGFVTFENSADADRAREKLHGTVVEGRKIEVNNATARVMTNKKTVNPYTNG", "assay": "EMSA; HiTS-Eq, 1 nM pool, 10 min; buffer printed only for the single-RNA assays: 10 mM Tris pH 7.5, 150 mM NaCl, 3.4 mM EDTA, 0.001% NP-40, 30 C", "details": "tags: His6 N-terminal (pET28a); label: 5' 32P", "summary_of_the_method": "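Relative association constants, normalised to the cognate motif, were derived by comparing read counts of each RNA species with those of the control reaction. The RNA sequenced was the free fraction, separated by 8% native PAGE after a 10 min equilibration in 50 µL of 1 nM 5′-radiolabelled RNA (7 randomized nucleotides) with increasing concentrations of purified wild-type or mutant RbFox RRM.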"}
{"binder": "B1", "binding signal": "0.0397 KA relative to UGCAUGU"}
{"binder": "B2", "binding signal": "0.155 KA relative to UGCAUGU"}
{"binder": "B3", "binding signal": "0.052 KA relative to UGCAUGU"}
{"binder": "B4", "binding signal": "0.0854 KA relative to UGCAUGU"}
{"binder": "B5", "binding signal": "0.0938 KA relative to UGCAUGU"}
{"binder": "B6", "binding signal": "0.0813 KA relative to UGCAUGU"}
{"binder": "B7", "binding signal": "0.098 KA relative to UGCAUGU"}
{"binder": "B8", "binding signal": "0.0507 KA relative to UGCAUGU"}
{"binder": "B9", "binding signal": "0.0559 KA relative to UGCAUGU"}
